The source of these data is ChEMBL document CHEMBL4888484, “Replenishing the malaria drug discovery pipeline: Screening and hit evaluation of the MMV Hit Generation Library 1 (HGL1) against asexual blood stage Plasmodium falciparum ,using a nano luciferase reporter read-out” (2022).

The % Inhibition is the change of the read-out against control, counted positive when it falls.

Out of some 150,000 compounds screened, about 540 (0.36%) showed an effect of 50% or more. The list shows a part of the results.

The subject of the assay is Plasmodium falciparum. The experiment in a line: Primary screen in NF54 nanoGlo assay, in single point, at 2uM, 72h; a lower Z score goes with more inhibition. In kind it is functional, Erythrocyte. The settings on record: timepoint 72 hour.
As to `O=C(c1cc(S(=O)(=O)N2CCCC2)cs1)N1CCCc2ccccc21`, the “% Inhibition” value is -14% and the Z score turned out to be 1.64.

As for `CCn1c(=O)c(N2CCC(NC(=O)NC3CCCCC3)CC2)nc2cccnc21`, the “% Inhibition” value is listed as -11% and the Z score was determined as 1.31.

On to `Cc1cnccc1C(=O)N[C@@H](C)c1nnc(N)s1`, for which the “% Inhibition” value is on record as 15% and the Z score was -1.67.

`COc1ccccc1N1CCN(C(=O)c2ccc(NS(=O)(=O)c3ccc(C)c(C)c3)cc2)CC1`: the “% Inhibition” value is listed as -7% and the Z score amounted to 0.77.

Take `O=C(O)CC1(CC(=O)N2CC[C@H]3COC(=O)N3c3cc(F)ccc3C2)CCCC1`: the “% Inhibition” value is reported as 10% and the Z score was -1.17.

Turning to `CCCOc1cc(N2CCC(O)CC2)ccc1NCCOc1ccc(F)cc1`, the “% Inhibition” value is reported as 5% and the Z score is recorded as -0.83.

On to `CCCCC(=O)N(CC(=O)N(Cc1ccccc1)Cc1ccc(C)o1)C(C)(C)C`, for which the “% Inhibition” value is listed as -12% and the Z score was determined as 1.89.

On to `Cc1noc(C)c1S(=O)(=O)NCC(c1ccco1)c1ccco1`, for which the “% Inhibition” value is given as -26% and the Z score is reported as 3.82.

For the compound `O=C(c1cc(F)cc(F)c1)N1CCC([C@]2(c3cccnc3)NC(=O)N(Cc3ccsc3)C2=O)CC1`, the “% Inhibition” value came to 7% and the Z score is on record as -0.85.

Consider `O=C(NCc1nc2ccccc2s1)[C@@H]1CCCCn2nnnc21`, for which the “% Inhibition” value is on record as 8% and the Z score is given as -1.09.

For `CCn1cc(C(=O)N(C)c2ccc(F)c(Cl)c2)cn1`, the “% Inhibition” value was -13% and the Z score came to 1.31.

`Cn1nc(-c2ccc(F)cc2)cc1C(=O)Nc1ccc2c(c1)C(=O)N1CCCC[C@H]1CCO2`: the “% Inhibition” value is on record as -13% and the Z score is on record as 1.52.

For `Cc1noc(C)c1CS(=O)(=O)CCC(=O)N1CCCCC1`, the “% Inhibition” value was -10% and the Z score came out at 0.86.

As for `COc1cccc(C)c1NC(=O)c1cnn2c1C[C@@H](C)CC2`, the “% Inhibition” value is on record as -10% and the Z score is 1.68.

Take `Cc1ccccc1-c1nccn1CCc1n[nH]c2c1CCCC2`: the “% Inhibition” value is -11% and the Z score turned out to be 2.1.

With `CC(=O)c1ccccc1NC(=O)[C@H](C)N1CCC(c2nc(C)no2)CC1`, the “% Inhibition” value was -10% and the Z score turned out to be 1.61.

Consider `Cc1csc(CNC(=O)N[C@@H](C)c2ccc(OC(F)(F)F)cc2)n1`, for which the “% Inhibition” value was -9% and the Z score worked out at 0.86.

On to `Cc1cc2[nH]c(=O)[nH]c2c(NC(=O)c2ccnn2C(C)C)c1C`, for which the “% Inhibition” value turned out to be 12% and the Z score was -1.35.

`Cc1ccccc1NC(=O)N1CCN(c2nc(N3CCOCC3)nc(-n3ccnc3)n2)CC1`: the “% Inhibition” value came to 12% and the Z score is reported as -1.52.

`O=C(O)c1cccnc1NCC1CCN(Cc2ccncc2)CC1`: the “% Inhibition” value came out at 0% and the Z score is -0.07.

Take `Cc1cc(CN(Cc2nccn2C)C2CC2)on1`: the “% Inhibition” value is listed as -22% and the Z score is listed as 2.37.

Take `Cc1nn(-c2cncc(C(N)=O)c2)c(C)c1-c1ccccc1O`: the “% Inhibition” value is reported as -6% and the Z score was determined as 1.21.

For `O=C(NC[C@@H](O)Cc1ccc(F)cc1F)C1CCC1`, the “% Inhibition” value worked out at 10% and the Z score is reported as -1.41.

In the case of `Cc1cn(CC(=O)Nc2ccc3c(n2)OCCO3)nc1C(F)(F)F`, the “% Inhibition” value is reported as -1% and the Z score was 0.12.

`CN1C(=O)c2ccc(-c3ccc(F)cc3F)cc2O[C@H]2CN(C3COC3)C[C@H]21`: the “% Inhibition” value is listed as -2% and the Z score was found to be 0.25.

Take `CCCN1CCCN(C(=O)Nc2ccc(-c3nc(C4CC4)no3)cc2C)CC1=O`: the “% Inhibition” value is on record as -22% and the Z score is listed as 2.78.

`O=C(c1cn2ccnc(-c3ccc(F)cc3)c2n1)N1CCN(c2ccccc2)CC1`: the “% Inhibition” value is -10% and the Z score was determined as 1.54.

Consider `OCCN(Cc1ccsc1)C1Cc2ccccc2C1O` (stereo unspecified), for which the “% Inhibition” value was found to be 7% and the Z score is given as -0.8.

With `CN(C)c1ccc(N2CCC(N3C(=O)[C@@H]4CCCN4C3=O)CC2)cc1`, the “% Inhibition” value is -9% and the Z score came to 0.9.

Take `CC(C)N1CCN(C(=O)c2csc(NC(=O)c3ccc(Cl)cc3Cl)n2)CC1`: the “% Inhibition” value was 0% and the Z score is recorded as -0.07.

Consider `CC(=O)N1CCN(Cc2nc3ccccc3o2)CC1`, for which the “% Inhibition” value is listed as -23% and the Z score came to 2.76.

As to `N#Cc1cccc(CN2CCN(C(=O)N3CCCC3)CC2)c1`, the “% Inhibition” value is recorded as -12% and the Z score is reported as 1.65.

For `O=C(NCc1nccnc1-c1cccs1)c1ccc2c(c1)OCO2`, the “% Inhibition” value is recorded as -3% and the Z score is reported as 0.42.

Regarding `Cc1nc(C(C)(C)NCCN2C(=O)CCC2=O)sc1C`, the “% Inhibition” value is given as -10% and the Z score turned out to be 1.6.

On to `COc1ccc(CNc2cncnc2OC)c(OC)c1`, for which the “% Inhibition” value worked out at 12% and the Z score is -1.43.

In the case of `Cc1cccc2nc(C3CCN(Cc4cnc(N(C)C)n4C)CC3)oc12`, the “% Inhibition” value is reported as -10% and the Z score is 1.24.

On to `COc1ccc(NC(=O)Cn2cnc3nc(N(C)Cc4ccccc4)sc3c2=O)cc1Cl`, for which the “% Inhibition” value was 32% and the Z score is given as -4.27.

For the compound `CCc1nnc(NC(=O)c2ccsc2)s1`, the “% Inhibition” value was 3% and the Z score is -0.37.

On to `CC(C)(C(=O)Nc1nc2c(ccc3ccccc32)s1)S(C)(=O)=O`, for which the “% Inhibition” value is on record as -6% and the Z score stood at 1.05.

As for `Cn1ncc2c(=O)[nH]c(CN3CCC(C(=O)NC(C)(C)C)CC3)nc21`, the “% Inhibition” value was determined as 3% and the Z score is -0.5.

For `C=CCCC(=O)NC1CCCC(S(C)(=O)=O)C1` (stereo unspecified), the “% Inhibition” value is reported as -13% and the Z score was 2.42.

In the case of `Cc1c(NC(=O)C2CCN(S(=O)(=O)Cc3ccc(F)cc3)CC2)c(=O)n(-c2ccccc2)n1C`, the “% Inhibition” value turned out to be 0% and the Z score is on record as -0.01.

With `CCC(CO)NCC(O)COc1cccc(Br)c1` (stereo unspecified), the “% Inhibition” value was -11% and the Z score worked out at 1.52.
